The supplement of paper PMC12582362
Counter-ions that a name gives are not always drawn. Out of some 1,500 compounds screened, about 30 (2%) showed activity.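 Rule for the calls: active = robust z-score below -2; a few such results were not called.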 This is one part of the list.

Test system: optoTopBP1 Flp-In 293 T-REx (HEK293) cells
Experiment: light-induced TopBP1 condensate (nuclear foci) count, plate-normalised robust z-score vs non-control wells; higher = more TopBP1 condensates (negative = condensation inhibitor), active = hit call of the paper
Conditions: 10 µM; incubation time 2 h

Row | Structure (SMILES) | light-induced TopBP1 condensate (z-score)
1 | O=P1(N(CCCl)CCCl)NCCCO1 (stereo not drawn) [Cyclophosphamide] | inactive: 0.625
2 | C[C@]12COC(=O)C[C@@H]1CC[C@@H]1[C@@H]2CC[C@@]2(C)[C@H]1CC[C@]2(C)O [Oxandrolone] | inactive: 0.162
3 | CN1C(=O)CCS(=O)(=O)C1c1ccc(Cl)cc1 (stereo not drawn) [Chlormezanone] | inactive: 0.503
4 | COC[C@@H](NC(C)=O)C(=O)NCc1ccccc1 [Lacosamide] | inactive: -0.609
5 | C[C@]12C/C(=C/O)C(=O)C[C@@H]1CC[C@@H]1[C@@H]2CC[C@@]2(C)[C@H]1CC[C@]2(C)O [Oxymetholone] | inactive: -1.66
6 | CC(=O)[C@H]1CC[C@H]2[C@@H]3CC[C@H]4C[C@H](O)CC[C@]4(C)[C@H]3C(=O)C[C@]12C [Alfaxalone] | inactive: 1.06
7 | C=C1C[C@@H]2[C@H](CC[C@]3(C)C(=O)CC[C@@H]23)[C@@]2(C)C=CC(=O)C=C12 [Exemestane] | inactive: -0.706
8 | COc1ccc(C(CN(C)C)C2(O)CCCCC2)cc1 (stereo not drawn) [Venlafaxine] | inactive: 1.09
9 | CCN(CC)CCOC(=O)C(O)(c1ccccc1)c1ccccc1 [Benactyzine hydrochloride] | inactive: -0.745
10 | CNC(=O)Oc1ccc2c(c1)[C@]1(C)CCN(C)[C@@H]1N2C [Eserine hemisulfate salt] | inactive: -0.639
11 | CN(C)C(=O)Oc1cccc([N+](C)(C)C)c1 [Neostigmine bromide] | inactive: 0.607
12 | CC(C)(N)Cc1ccccc1 [Phentermine hydrochloride] | inactive: 0.682
13 | CCNCC(O)c1cccc(O)c1 (stereo not drawn) [Etilefrine hydrochloride] | inactive: 0.748
14 | CC(C)C[C@H]1C(=O)N2CCC[C@H]2[C@]2(O)O[C@](NC(=O)[C@@H]3C=C4c5cccc6[nH]c(Br)c(c56)C[C@H]4N(C)C3)(C(C)C)C(=O)N12 [Bromocryptine mesylate] | inactive: 1.17
15 | CN1[C@@H]2CC[C@H]1C[C@@H](OC(=O)C(CO)c1ccccc1)C2 (stereo partly drawn) [Atropine sulfate monohydrate] | inactive: -0.15
16 | C[C@]12CCC(=O)C(O)=C1CC[C@@H]1[C@@H]2CC[C@]2(C)C(=O)CC[C@@H]12 [Formestane] | inactive: 0.41
17 | CNC(C)(C)Cc1ccccc1 [Mephentermine hemisulfate] | inactive: -0.167
18 | NCCCNCCSP(=O)(O)O [Amifostine] | inactive: 0.691
19 | CC1OC(OC2/C=C/C=C/C=C/C=C/CC/C=C/C=C/[C@H](C)[C@@H](O)[C@@H](C)[C@H](C)OC(=O)CC(O)CC(O)CC(O)CCC(O)C(O)C[C@]3(O)CC(O)C(C(=O)O)C(C2)O3)C(O)C(N)C1O (stereo partly drawn) [Nystatine] | inactive: 0.546
20 | O=c1[nH]c2ccccc2n1C1CCN(CCCC(c2ccc(F)cc2)c2ccc(F)cc2)CC1 [Pimozide] | inactive: -1.48
21 | C#CCN(C)[C@H](C)Cc1ccccc1 [Selegiline hydrochloride] | inactive: -0.225
22 | CN(C)C(=O)Oc1ccc[n+](C)c1 [Pyridostigmine iodide] | inactive: -0.114
23 | C[C@]12CC[C@@H](O)C[C@H]1CC[C@@H]1[C@@H]2CC[C@]2(C)C(=O)CC[C@@H]12 [3-alpha-Hydroxy-5-beta-androstan-17-one] | inactive: -0.529
